Source: the RNAGym collection of RNA variant scans (doi:10.7554/elife.90254)
The source gives no read counts; variants with many changes may rest on few reads.

B1: OR4K15 (parent)
chain: GUUAACGGUCAUAGGCCAUGGAAACUAGGAGCACCAUUUCGCUGCCAGUGAAGAAAUGAACAAAGAAAAUCUGGGCCAGGCAGGCAUCAAAAGAAAUAGUCUUGCGCUCAACCAGAAAGUCUGUAAUCAUUUUAAGGGUA

Variants of: B1
Assay: self-cleavage, relative activity (ratio to wild type); higher = more cleavage; in vitro, sequencing; the parent is a self-cleaving ribozyme

Question: With U70C A89U A114G as the variant, how does the self-cleavage read?
Answer: The self-cleavage was 0.2.

Question: Which self-cleavage does the source give for A67G A92U A118G here?
Answer: Its self-cleavage is 1.52.

Question: Which self-cleavage does the source give for U70C A86U U120A A129G here?
Answer: Its self-cleavage is 0.37.

Question: For U72C A82G A114C U127C, which self-cleavage is on record?
Answer: Its self-cleavage is 0.01.

Question: For A69G A82U A98U A118G, which self-cleavage is on record?
Answer: Its self-cleavage is 0.03.

Question: For C71A G80C A95G, which self-cleavage is on record?
Answer: Its self-cleavage is 0.04.

Question: For G73U A90G A96U, which self-cleavage is on record?
Answer: Its self-cleavage is 0.17.

Question: Which self-cleavage does the source give for U72A A82U A96G A140G here?
Answer: The self-cleavage was 0.18.

Question: With A67U U102C A126G as the variant, how does the self-cleavage read?
Answer: The self-cleavage was 1.18.

Question: For A67G A118G A129G U131C, which self-cleavage is on record?
Answer: The self-cleavage was 0.31.

Question: Which self-cleavage does the source give for A78C U120C A134G here?
Answer: Its self-cleavage is 0.14.

Question: With A68G A82G U132C as the variant, how does the self-cleavage read?
Answer: Its self-cleavage is 0.97.

Question: With A69C A116G A126G as the variant, how does the self-cleavage read?
Answer: The self-cleavage was 1.37.

Question: With A68G A78G U100C as the variant, how does the self-cleavage read?
Answer: The self-cleavage was 0.08.

Question: For A68G A96G U102C, which self-cleavage is on record?
Answer: Its self-cleavage is 2.16.

Question: With A68G A69U G73A as the variant, how does the self-cleavage read?
Answer: The self-cleavage was 0.17.

Question: With A78G C81U A96G as the variant, how does the self-cleavage read?
Answer: The self-cleavage was 0.05.

Question: For G73A G83U A116G, which self-cleavage is on record?
Answer: The self-cleavage was 0.07.

Question: For A78G U97C U122C, which self-cleavage is on record?
Answer: Its self-cleavage is 0.1.

Question: For A78U U108A A111G, which self-cleavage is on record?
Answer: Its self-cleavage is 0.01.

Question: For A69G G75C A78U U108C U131C, which self-cleavage is on record?
Answer: Its self-cleavage is 0.

Question: With A69G A86G A111U as the variant, how does the self-cleavage read?
Answer: Its self-cleavage is 0.08.

Question: For A67U A95G U100C, which self-cleavage is on record?
Answer: The self-cleavage was 2.79.

Question: With U72A A96G G104A as the variant, how does the self-cleavage read?
Answer: The self-cleavage was 0.

Question: With A69U A116G U127C A129G U130G as the variant, how does the self-cleavage read?
Answer: The self-cleavage was 0.25.

Question: With U72C A90G A111U as the variant, how does the self-cleavage read?
Answer: The self-cleavage was 0.02.

Question: With A67G G83A U108C as the variant, how does the self-cleavage read?
Answer: The self-cleavage was 0.

Question: Which self-cleavage does the source give for A78G A114U A118G here?
Answer: The self-cleavage was 0.01.

Question: For A82G A86G A96U A116U, which self-cleavage is on record?
Answer: The self-cleavage was 0.05.

Question: With A69G U120C A125G A126G as the variant, how does the self-cleavage read?
Answer: Its self-cleavage is 0.03.

Question: With A78G A95G A110G as the variant, how does the self-cleavage read?
Answer: The self-cleavage was 0.1.

Question: With A67G A69G U122A as the variant, how does the self-cleavage read?
Answer: The self-cleavage was 1.39.

Question: Which self-cleavage does the source give for A78U A94G A95G here?
Answer: Its self-cleavage is 0.12.

Question: With A68G U108C A116G as the variant, how does the self-cleavage read?
Answer: The self-cleavage was 0.

Question: For A69G G75C A125G, which self-cleavage is on record?
Answer: The self-cleavage was 0.03.

Question: With A68G A92G A98U U124C as the variant, how does the self-cleavage read?
Answer: Its self-cleavage is 2.03.

Question: Which self-cleavage does the source give for A67G U72C A96G A114G here?
Answer: Its self-cleavage is 2.46.

Question: With A82G G106A A129C as the variant, how does the self-cleavage read?
Answer: Its self-cleavage is 0.

Question: With A82G U87A A111G A117G as the variant, how does the self-cleavage read?
Answer: The self-cleavage was 0.

Question: With U70C U108C G138A as the variant, how does the self-cleavage read?
Answer: The self-cleavage was 0.

Question: Which self-cleavage does the source give for A78G A90G A116G A118C U120C U133C here?
Answer: Its self-cleavage is 0.01.

Question: For A68G A82U U103C, which self-cleavage is on record?
Answer: Its self-cleavage is 0.23.

Question: With A67G A110G U120C as the variant, how does the self-cleavage read?
Answer: Its self-cleavage is 0.13.

Question: For A68G U70C A95G A111C U122C, which self-cleavage is on record?
Answer: The self-cleavage was 0.

Question: Which self-cleavage does the source give for U70C A90U A95G A125G here?
Answer: The self-cleavage was 0.75.

Question: With A68G A69U A89G A95G as the variant, how does the self-cleavage read?
Answer: The self-cleavage was 2.2.

Question: Which self-cleavage does the source give for C77U U103C U122C here?
Answer: Its self-cleavage is 0.91.

Question: For G75C U102C A116G, which self-cleavage is on record?
Answer: Its self-cleavage is 0.04.

Question: With A68U A82G U131C as the variant, how does the self-cleavage read?
Answer: The self-cleavage was 0.16.

Question: With A67G A91G A126G as the variant, how does the self-cleavage read?
Answer: Its self-cleavage is 0.4.

Question: Which self-cleavage does the source give for A67G A91G A129G here?
Answer: Its self-cleavage is 0.73.

Question: Which self-cleavage does the source give for U72A A82U A111G here?
Answer: The self-cleavage was 0.02.

Question: With A69G U70G U127C U132C as the variant, how does the self-cleavage read?
Answer: Its self-cleavage is 0.18.

Question: With U70A U102A U133C A140G as the variant, how does the self-cleavage read?
Answer: Its self-cleavage is 0.32.

Question: Which self-cleavage does the source give for U70C A90G U97C here?
Answer: Its self-cleavage is 0.47.

Question: Which self-cleavage does the source give for C81U A90G A91G here?
Answer: Its self-cleavage is 0.27.

Question: With U72A A118U A140G as the variant, how does the self-cleavage read?
Answer: Its self-cleavage is 0.13.

Question: Which self-cleavage does the source give for A78G A118G U132A here?
Answer: The self-cleavage was 0.09.

Question: Which self-cleavage does the source give for G79U A110G A114G U132C here?
Answer: The self-cleavage was 0.

Question: For A68G A98G U124C, which self-cleavage is on record?
Answer: Its self-cleavage is 0.38.

Question: For A78U G84C U124C, which self-cleavage is on record?
Answer: The self-cleavage was 0.06.

Question: With A67G U72C A98G as the variant, how does the self-cleavage read?
Answer: Its self-cleavage is 0.03.

Question: Which self-cleavage does the source give for A78C G83A U102C U139C here?
Answer: The self-cleavage was 0.25.

Question: For A78G A91G A96G U97C, which self-cleavage is on record?
Answer: Its self-cleavage is 0.01.

Question: For U70C U100C U108A, which self-cleavage is on record?
Answer: Its self-cleavage is 0.01.

Question: For G74A U127C U130C, which self-cleavage is on record?
Answer: The self-cleavage was 0.03.

Question: With C71U U87A A117G A118C as the variant, how does the self-cleavage read?
Answer: Its self-cleavage is 0.03.

Question: For A82G A96G C113U, which self-cleavage is on record?
Answer: Its self-cleavage is 0.1.

Question: For A68G A89G A110G, which self-cleavage is on record?
Answer: Its self-cleavage is 0.34.

Question: With U70C U102C U124C U127C as the variant, how does the self-cleavage read?
Answer: The self-cleavage was 0.32.

Question: With A67G U102A U108A as the variant, how does the self-cleavage read?
Answer: The self-cleavage was 0.01.

Question: For U70C A90U A98G, which self-cleavage is on record?
Answer: Its self-cleavage is 0.48.

Question: Which self-cleavage does the source give for A68G U70C A95G A111G A126G here?
Answer: Its self-cleavage is 0.01.

Question: Which self-cleavage does the source give for U72C A90G A94G U132C here?
Answer: The self-cleavage was 0.25.

Question: For A68G A86G A91G, which self-cleavage is on record?
Answer: The self-cleavage was 0.06.

Question: For A78G A89G A90U A96G U102C A118U U131C, which self-cleavage is on record?
Answer: Its self-cleavage is 0.12.

Question: For A67G A90G C113G, which self-cleavage is on record?
Answer: Its self-cleavage is 0.

Question: Which self-cleavage does the source give for G73U A86U A118G here?
Answer: The self-cleavage was 0.11.

Question: For G73A A89G U127C U132C A135U, which self-cleavage is on record?
Answer: Its self-cleavage is 0.17.

Question: Which self-cleavage does the source give for U70A A92G A116G U139C here?
Answer: Its self-cleavage is 0.17.

Question: For G75A U122A U130C, which self-cleavage is on record?
Answer: Its self-cleavage is 0.06.

Question: Which self-cleavage does the source give for A67G A78U A98C here?
Answer: Its self-cleavage is 0.43.

Question: For U70C A78G U103C A111G A125G, which self-cleavage is on record?
Answer: The self-cleavage was 0.02.

Question: For A78G A96G U100C U131C, which self-cleavage is on record?
Answer: Its self-cleavage is 0.34.
